Out of some 220,000 compounds screened, about 5,700 (2.6%) were called active. This list was built around the results that the source calls inconclusive (neither active nor inactive); the mix of calls is not that of the screen. The call rests on the fitted dose curve; in most records, active means well fitted inhibition curve with a large enough effect; inconclusive means small, poorly fitted or top-dose-only effect; inactive means no such curve, though single readings can be large or run the other way. A potency beside an inconclusive call is a rough fit, not a confirmed value.
target: Lysine-specific demethylase 5B (Homo sapiens) (UniProt Q9UGL1); assay: Primary screen for KDM5B Histone Demethylases FDH-coupled qHTS; details: FDH-coupled NADH fluorescence (FDH is formaldehyde dehydrogenase); activity change, negative = inhibition: at 57.7 µM (top of the series) unless noted; further: nearly all actives have a fitted effect of over 70% in size; on activity change, negative = inhibition: 0% is about no effect
How it was run: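 KDM5BΔAP (200 nM final) in 50 mM HEPES pH 7.5, 0.01% Tween-20 was preincubated 10 min at RT with compound over a concentration range. Substrate mix (H3K4me3 12.5 µM, α-KG 25 µM, Fe²⁺, ascorbate, NAD⁺, FDH) was added, and NADH fluorescence change over 30 min gave dose-response curves.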
Potency means the concentration at half of the fitted maximal effect; tags describe the fitted curve by direction and shape.

Chain of UniProt Q9UGL1 (Q9UGL1 whole entry, looked up): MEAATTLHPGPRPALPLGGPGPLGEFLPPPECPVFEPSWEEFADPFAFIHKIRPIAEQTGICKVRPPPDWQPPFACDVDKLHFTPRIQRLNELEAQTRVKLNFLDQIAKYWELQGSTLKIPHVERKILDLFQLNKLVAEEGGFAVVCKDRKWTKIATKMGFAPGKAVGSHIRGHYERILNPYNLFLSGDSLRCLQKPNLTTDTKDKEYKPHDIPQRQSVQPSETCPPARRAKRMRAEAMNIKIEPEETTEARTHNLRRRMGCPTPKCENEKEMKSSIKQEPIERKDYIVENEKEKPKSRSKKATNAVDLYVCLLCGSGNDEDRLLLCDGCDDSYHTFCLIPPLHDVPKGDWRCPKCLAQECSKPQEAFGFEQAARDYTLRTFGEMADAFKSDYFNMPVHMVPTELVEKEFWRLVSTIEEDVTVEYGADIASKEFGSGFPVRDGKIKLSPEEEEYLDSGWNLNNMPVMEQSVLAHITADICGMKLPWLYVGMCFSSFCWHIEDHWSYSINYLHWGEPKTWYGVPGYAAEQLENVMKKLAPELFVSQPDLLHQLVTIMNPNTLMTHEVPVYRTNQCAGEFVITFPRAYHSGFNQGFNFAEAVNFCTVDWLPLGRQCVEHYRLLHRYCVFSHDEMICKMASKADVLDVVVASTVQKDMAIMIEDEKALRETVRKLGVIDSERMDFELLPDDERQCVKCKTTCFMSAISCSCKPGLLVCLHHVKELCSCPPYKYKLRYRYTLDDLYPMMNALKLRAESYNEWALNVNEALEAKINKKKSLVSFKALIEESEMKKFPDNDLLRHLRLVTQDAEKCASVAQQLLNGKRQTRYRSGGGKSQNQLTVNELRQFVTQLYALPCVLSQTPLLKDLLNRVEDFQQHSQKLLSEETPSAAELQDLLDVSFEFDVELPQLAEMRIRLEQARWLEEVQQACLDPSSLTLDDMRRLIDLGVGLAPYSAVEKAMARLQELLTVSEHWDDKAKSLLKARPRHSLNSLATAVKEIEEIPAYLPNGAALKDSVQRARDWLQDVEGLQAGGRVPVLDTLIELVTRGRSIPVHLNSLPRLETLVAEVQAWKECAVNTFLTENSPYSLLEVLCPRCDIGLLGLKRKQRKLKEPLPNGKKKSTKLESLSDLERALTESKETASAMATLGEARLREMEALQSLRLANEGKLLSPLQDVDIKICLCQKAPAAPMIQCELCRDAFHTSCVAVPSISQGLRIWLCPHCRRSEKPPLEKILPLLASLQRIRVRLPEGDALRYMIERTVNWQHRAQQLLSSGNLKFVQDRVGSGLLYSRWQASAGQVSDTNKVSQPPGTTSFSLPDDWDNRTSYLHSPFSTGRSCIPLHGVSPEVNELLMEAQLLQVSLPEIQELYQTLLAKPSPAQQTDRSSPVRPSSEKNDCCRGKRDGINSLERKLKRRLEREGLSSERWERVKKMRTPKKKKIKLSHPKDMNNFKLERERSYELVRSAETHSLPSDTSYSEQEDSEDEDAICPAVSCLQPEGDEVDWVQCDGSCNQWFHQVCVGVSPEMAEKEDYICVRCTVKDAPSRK

For Cc1cc(C)c2c(n1)nn1c(C)c(CCC(=O)Nc3ccc(C)c(Cl)c3)c(C)nc21, which Potency is on record?
Its Potency is inconclusive: 5.01 µM [inhibitor, full curve, poor fit].

Which Potency does the source give for CSc1nc2n(n1)C(c1ccccc1)C1=C(CCCC1=O)N2 (stereo not drawn) here?
Its Potency is inconclusive: 39.8 µM [inhibitor, partial curve, poor fit].

With CN(C(=O)CCN1Cc2ccccc2C1=O)C1CCCN(CCc2ccccc2)C1 (stereo not drawn) as the molecule, how does the Potency read?
The Potency was “inactive”.

How did the Potency turn out when CCOc1ccccc1NC(=O)c1c(NC(=O)C(C)Oc2cccc(Cl)c2)sc2c1CCCCC2 (stereo not drawn) was run?
Its Potency is inconclusive: 20 µM [inhibitor, partial curve, poor fit].

How did the Potency turn out when Cc1ccc(CC(=O)N2CCN(c3cc(-c4cccs4)[nH]n3)CC2)cc1 was run?
Its Potency is inconclusive: 28.2 µM [inhibitor, partial curve, poor fit].

Cc1nc2scc(CC(=O)NCCC(C)C)n2c(=O)c1-c1cc(C)n(-c2ccccc2F)n1 was tested. Which Potency did it give?
Its Potency is inconclusive: 28.2 µM [inhibitor, partial curve, poor fit].

With O=[S+]([O-])(c1ccccc1)N1CCNc2cnc(Nc3cccc(F)c3)nc2C1 as the molecule, how does the Potency read?
The Potency was inconclusive: 28.2 µM [inhibitor, partial curve, poor fit].

CN(C)c1ccc(C2/C(=C(/O)c3ccc(Br)cc3)C(=O)C(=O)N2C)cc1 (stereo not drawn) was tested. Which Potency did it give?
Its Potency is inconclusive: 39.8 µM [inhibitor, partial curve, poor fit].

Clc1ccc(C=Nc2ccc(Nc3ccccc3)cc2)c(Cl)c1 was tested. Which Potency did it give?
Its Potency is inconclusive: 11.2 µM [inhibitor, partial curve, poor fit].

CCN(CC)c1ccc(NC(=O)CCS(=O)(=O)c2cccc3nsnc23)c(C)c1 was tested. Which Potency did it give?
The Potency was inconclusive: 28.2 µM [inhibitor, partial curve, poor fit].

How did the Potency turn out when c1ccc([C@@H]2CNC[C@H]2COc2ccncc2)nc1 was run?
Its Potency is inconclusive: 15.8 µM [inhibitor, partial curve, poor fit].

O=C(O)C[C@@H]1CCN(C(=O)C(=O)O)C[C@@H]1CC1=NCCc2ccccc21 was tested. Which Potency did it give?
Its Potency is inconclusive: 28.2 µM [inhibitor, partial curve].

With COc1cc(OC)c(NC(=O)C(C)n2c(=O)cc(-c3ccccc3)c3c(C)nn(C)c32)cc1Cl (stereo not drawn) as the molecule, how does the activity change, negative = inhibition read?
Its activity change, negative = inhibition is inconclusive: -38.8% [inhibitor].

For CCc1ccc(NC(=O)N2CC=C(c3c[nH]c4ccccc34)CC2)cc1, which Potency is on record?
The Potency was inconclusive: 15.8 µM [inhibitor, partial curve, poor fit].

For CNC(=O)C1(N2CCC[C@H]2C(=O)NCc2ccccc2)CCCCC1, which Potency is on record?
Its Potency is inconclusive: 25.1 µM [inhibitor, partial curve].

How did the Potency turn out when CCOc1ccccc1CN1C(=O)CN(S(C)(=O)=O)CC1(C)C(=O)NCc1ccc(F)cc1 (stereo not drawn) was run?
Its Potency is “inactive”.

COc1ccccc1-c1[nH]nc2ncc(C(=O)NCCc3ccccn3)nc12 was tested. Which Potency did it give?
The Potency was inconclusive: 35.5 µM [inhibitor, single point].

With CCC(CC)C(=O)Nc1cccc(-c2nc3cccnc3s2)c1 as the molecule, how does the Potency read?
Its Potency is inconclusive: 25.1 µM [inhibitor, partial curve, poor fit].

How did the Potency turn out when COCCNc1nc(-c2c(C)noc2C)cc2cc(C(C)C)oc12 was run?
The Potency was inconclusive: 56.2 µM [inhibitor, single point].

Which Potency does the source give for CC#CCn1cc2c3c(cccc31)[C@H](CC(C)C)N[C@H](C(=O)OC)C2 here?
The Potency was inconclusive: 31.6 µM [inhibitor, partial curve, poor fit].

COc1cccc(COC(=O)c2nn(-c3ccccc3)nc2N)c1 was tested. Which Potency did it give?
The Potency was inconclusive: 31.6 µM [inhibitor, partial curve, poor fit].

How did the Potency turn out when CC1=C[C@@H](CNC(=O)c2ccco2)[C@H](C(C)C)C[C@H]1CC(=O)NCc1ccccn1 was run?
Its Potency is inconclusive: 35.5 µM [inhibitor, single point].

O=S(Cc1ccc(F)cc1)Cc1cccc(C(F)(F)F)c1 (stereo not drawn) was tested. Which Potency did it give?
Its Potency is “inactive”.

Which Potency does the source give for CNC(=O)c1cnc2c(c1)N(Cc1ccccc1)CCC2 here?
Its Potency is active: 31.6 µM.

With O=C(CN1CCCCCC1)N1CCC2(CC1)CN(Cc1ccccc1)CC2CO (stereo not drawn) as the molecule, how does the Potency read?
Its Potency is inconclusive: 22.4 µM [inhibitor, partial curve].

CC1CCCC(C(=O)O)N1 (stereo not drawn) was tested. Which Potency did it give?
The Potency was “inactive”.

How did the Potency turn out when COc1ccc(CN[C@H]2CS(=O)(=O)C[C@@H]2S(=O)(=O)c2ccc(F)cc2)cc1OC was run?
Its Potency is “inactive”.

For Cc1ccc(-n2cc3c(c2-c2ccccc2)c(=O)n(C)c(=O)n3C)c(C)c1, which Potency is on record?
The Potency was inconclusive: 20 µM [inhibitor, partial curve, poor fit].

How did the Potency turn out when Cc1ccc(CNS(=O)(=O)c2ccc(F)c(C(=O)Nc3ccc(C)c(F)c3)c2)cc1 was run?
The Potency was inconclusive: 44.7 µM [inhibitor, single point].

Which Potency does the source give for Cc1cc(NC(=O)c2cc(-c3ccncc3)nc3c(C)cccc23)no1 here?
Its Potency is inconclusive: 22.4 µM [inhibitor, partial curve, poor fit].

With COc1ccc(-c2noc(-c3ncn4c3COC(c3ccc(F)cc3)C4)n2)c(OC)c1 (stereo not drawn) as the molecule, how does the Potency read?
Its Potency is inconclusive: 15.8 µM [inhibitor, partial curve, poor fit].

How did the Potency turn out when CC(NC(=O)c1ccc(Cl)o1)c1nc(-c2ccc(F)cc2)no1 (stereo not drawn) was run?
The Potency was “inactive”.

With COc1ccc(NCc2nc3ccccc3n2CCOc2ccccc2C)cc1 as the molecule, how does the Potency read?
The Potency was inconclusive: 15.8 µM [inhibitor, single point].

For O=C(Cc1ccc(-n2cnnn2)cc1)N[C@@H]1COCC[C@@H]1OCc1ccccc1, which Potency is on record?
The Potency was “inactive”.

Which Potency does the source give for CC(=O)N1CCC(NC[C@@H]2C=C(C)[C@H](Cc3nc4ccccc4[nH]3)C[C@H]2C(C)C)CC1 here?
The Potency was “inactive”.

Cc1ccccc1NC(=O)c1ccc(NC(=O)N2CCSc3ncccc32)cc1 was tested. Which Potency did it give?
Its Potency is inconclusive: 35.5 µM [inhibitor, partial curve, poor fit].

How did the Potency turn out when Cc1ccc(NC(=O)CSc2nc3cc([N+](=O)[O-])ccc3o2)cc1 was run?
The Potency was “inactive”.

Which Potency does the source give for Clc1ccc(Oc2ccc3nnnn3n2)c(Br)c1 here?
Its Potency is “inactive”.

For COc1ccc(S(=O)(=O)N2CCCOC2CNC(=O)C(=O)NCCc2ccco2)cc1C (stereo not drawn), which Potency is on record?
The Potency was inconclusive: 20 µM [inhibitor, partial curve, poor fit].

For Cc1ccc(C(=O)c2oc3cc(NC(=O)c4ccco4)ccc3c2C)cc1, which Potency is on record?
The Potency was inconclusive: 39.8 µM [inhibitor, single point].

With CCOC(=O)C1CCCN(C(=O)Cc2ccc(N(Cc3cccc(F)c3)C(=O)c3ccco3)cc2)C1 (stereo not drawn) as the molecule, how does the Potency read?
The Potency was inconclusive: 25.1 µM [inhibitor, partial curve, poor fit].

Which Potency does the source give for COC(=O)c1ccc(COC(=O)/C=C/c2ccc3c(c2)OCO3)o1 here?
The Potency was inconclusive: 39.8 µM [inhibitor, single point].

With CC1(C)CC(=O)C2=C(C1)OC(c1ccccc1)(C(C)(C)C)NC2=O (stereo not drawn) as the molecule, how does the Potency read?
Its Potency is inconclusive: 11.2 µM [inhibitor, partial curve, poor fit].

Which Potency does the source give for CCOC(=O)c1cnn(-c2cc(C)nc3c(-c4ccc(F)cc4)c(CC)nn23)c1N here?
The Potency was “inactive”.

How did the Potency turn out when Cc1ccccc1C(=O)N1CCc2nc3cc[nH]n3c(=O)c2C1 was run?
Its Potency is active: 28.2 µM.

Cc1ccc(OCc2cc(=O)n3c4c(sc3n2)CCCC4)c(C)c1 was tested. Which Potency did it give?
The Potency was inconclusive: 25.1 µM [inhibitor, partial curve, poor fit].

COc1ccc(CCNC(=O)c2cc3c(N4CCSCC4)nc(C)cn3n2)cc1OC was tested. Which Potency did it give?
The Potency was inconclusive: 25.1 µM [inhibitor, partial curve, poor fit].

Which Potency does the source give for CC(C)CCN1CCC2(CC1)NCc1ccccc1NC2=O here?
The Potency was inconclusive: 100 µM [inhibitor, partial curve].

How did the Potency turn out when Cc1ccccc1S(=O)(=O)N1CCCC(CCC(=O)N2CCc3ccccc3C2)C1 (stereo not drawn) was run?
The Potency was inconclusive: 12.6 µM [inhibitor, partial curve].

For CC(NC(=O)CSc1nnc(-c2cccnc2)n1-c1ccccc1)c1ccc2c(c1)OCCO2 (stereo not drawn), which Potency is on record?
The Potency was “inactive”.

Which Potency does the source give for COc1ccc(NC(=O)C(c2ccc(OC)cc2)N(Cc2ccco2)C(=O)Cc2cccs2)cc1 (stereo not drawn) here?
Its Potency is “inactive”.

For COc1ccc(CCC(=O)N[C@@H]2CN(c3ncccn3)C[C@H]2CN(C)C)cc1, which Potency is on record?
Its Potency is active: 22.4 µM.

With CN1C(=O)c2ccc(NC(=O)Cn3nc4c(cc3=O)CCCC4)cc2C1=O as the molecule, how does the Potency read?
The Potency was active: 28.2 µM.

Which Potency does the source give for CCOc1ccc(CN(C)C(=O)Cn2c(=O)c3c(ncn3CC)n(Cc3ccccc3)c2=O)cc1 here?
The Potency was “inactive”.

CCNC(=O)N[C@H]1C[C@@H](c2nc(-c3ccc(OC(F)(F)F)cc3)no2)N(C)C1 was tested. Which Potency did it give?
The Potency was inconclusive: 6.31 µM [inhibitor, partial curve].

CN(Cc1ccsc1)C(=O)C1CCCN(C2CCN(C(=O)C3CC3)CC2)C1 (stereo not drawn) was tested. Which Potency did it give?
Its Potency is inconclusive: 39.8 µM [inhibitor, single point].

Which Potency does the source give for Cc1cccc(NC(=O)Nc2ccc(C)n(CC(=O)Nc3ccc(C)c(C)c3)c2=O)c1 here?
Its Potency is “inactive”.

Which Potency does the source give for O=C1Cc2c(-c3ccoc3)n[nH]c2CN1Cc1ccccc1 here?
Its Potency is inconclusive: 50.1 µM [inhibitor, partial curve, poor fit].

CCC1Oc2ccc(NC(=O)c3ccccc3F)cc2CN(Cc2ccc(OC)cc2)C1=O (stereo not drawn) was tested. Which Potency did it give?
Its Potency is inconclusive: 20 µM [inhibitor, single point].

How did the Potency turn out when C/C(CCc1oc2ccc(Br)cc2c1-c1ccc(C)o1)=N\O was run?
The Potency was inconclusive: 31.6 µM [inhibitor, partial curve, poor fit].

How did the Potency turn out when Cc1ccccc1CNC(=O)CCn1ccn2nc3c(c2c1=O)CCCC3 was run?
The Potency was inconclusive: 79.4 µM [inhibitor, partial curve, poor fit].

With Cc1ccccc1C(=O)Nc1cccc(-c2nc3cccnc3s2)c1 as the molecule, how does the Potency read?
Its Potency is inconclusive: 20 µM [inhibitor, partial curve, poor fit].

CN(CCc1noc(COc2cccc(F)c2)n1)C(=O)c1ccccc1C(F)(F)F was tested. Which Potency did it give?
Its Potency is “inactive”.
